Experimental data taken from PubChem BioAssay (NCATS).
The shares of active, inactive and inconclusive entries below differ from those in the screen. For part of these data: Potencies beside an inconclusive call are fits to weak or partial responses and may not hold up. Active and inactive are the calls of the source. Unless noted, calls follow the shape of the dose curve; as a rule, active = well fitted curve in the direction sought with a large enough effect; inconclusive = small, poorly fitted or top-dose-only effect, or another doubt; inactive = no such curve, though single readings can be large; an effect the other way counts as inactive or inconclusive.

Key:
[1] = P-glycoprotein substrates identified in KB-8-5-11 adenocarcinoma cell line, qHTS therapeutic library screen (AID 1346987); also: nearly all actives have a fitted effect of over 65% in size
How it was run: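 KB-8-5-11, a colchicine-selected P-gp-overexpressing KB-3-1 subline, was grown without colchicine for the assay. Cells were seeded at 500 cells/well, dosed in concentration-response and incubated 72 h at 37 degree C, 5% CO2. Viability was read by CellTiter-Glo luminescence.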

[2] = test system: Zika virus NS2B-NS3 protease (unlinked complex); experiment: Primary screen GU Rhodamine qHTS for Zika virus inhibitors: Unlinked NS2B-NS3 protease assay (AID 1347159); also: nearly all actives have a fitted effect of over 60% in size
How it was run: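 Noncovalent NS2B hydrophilic domain–NS3 protease domain complex (25 nM) preincubated 15 min at room temperature with compounds (up to 114 microM) in 10 mM Tris-HCl pH 8.0, 0.01% Tween 20; 1.5 microM Rhodamine110 substrate added, fluorescence change over 15 min fitted to Hill equation.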

[3] = biological target: Cytochrome P450 2D6 (Homo sapiens) (UniProt P10635); experiment: Cytochrome P450 family 2 subfamily D member 6 (CYP2D6) small molecule antagonists: luciferase biochemical (cell-free) qHTS assay (AID 1645840; active = well fitted curve in the direction sought with a large enough effect in the repeat runs; inconclusive = weak or mixed curves; inactive = no such curve, though single readings can be large; an effect the other way counts as inactive or inconclusive; also: nearly all actives have a fitted effect of over 55% in size)
UniProt P10635, sequence (P10635 whole entry, looked up): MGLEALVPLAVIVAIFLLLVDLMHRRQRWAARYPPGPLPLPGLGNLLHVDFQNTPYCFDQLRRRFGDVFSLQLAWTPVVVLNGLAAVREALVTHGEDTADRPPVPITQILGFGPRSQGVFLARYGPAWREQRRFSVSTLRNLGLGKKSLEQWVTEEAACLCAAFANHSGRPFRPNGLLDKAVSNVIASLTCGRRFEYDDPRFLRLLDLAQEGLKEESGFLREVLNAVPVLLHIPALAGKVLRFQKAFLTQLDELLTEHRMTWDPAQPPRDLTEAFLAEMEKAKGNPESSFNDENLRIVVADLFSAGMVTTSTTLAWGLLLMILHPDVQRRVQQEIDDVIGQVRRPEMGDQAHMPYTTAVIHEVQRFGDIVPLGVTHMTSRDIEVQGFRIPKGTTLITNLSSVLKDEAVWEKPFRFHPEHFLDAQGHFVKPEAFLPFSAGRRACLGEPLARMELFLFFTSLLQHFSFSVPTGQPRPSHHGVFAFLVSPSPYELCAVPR
How it was run: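 P450-Glo luminescent screen: recombinant CYP2D6 enzyme–proluciferin substrate mix preincubated with compound 10 min at room temperature, then NADPH regeneration added for 1 h at room temperature. Detection reagent added for 20 min; luciferin light read as relative luminescence units.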

[4] = biological target: Cytochrome P450 2C9 (Homo sapiens) (UniProt P11712); experiment: Cytochrome P450 family 2 subfamily C member 9 (CYP2C9) small molecule antagonists: luciferase biochemical (cell-free) qHTS assay (AID 1645842; active = well fitted curve in the direction sought with a large enough effect in the repeat runs; inconclusive = weak or mixed curves; inactive = no such curve, though single readings can be large; an effect the other way counts as inactive or inconclusive; also: nearly all actives have a fitted effect of over 55% in size)
UniProt P11712, sequence (P11712 whole entry, looked up): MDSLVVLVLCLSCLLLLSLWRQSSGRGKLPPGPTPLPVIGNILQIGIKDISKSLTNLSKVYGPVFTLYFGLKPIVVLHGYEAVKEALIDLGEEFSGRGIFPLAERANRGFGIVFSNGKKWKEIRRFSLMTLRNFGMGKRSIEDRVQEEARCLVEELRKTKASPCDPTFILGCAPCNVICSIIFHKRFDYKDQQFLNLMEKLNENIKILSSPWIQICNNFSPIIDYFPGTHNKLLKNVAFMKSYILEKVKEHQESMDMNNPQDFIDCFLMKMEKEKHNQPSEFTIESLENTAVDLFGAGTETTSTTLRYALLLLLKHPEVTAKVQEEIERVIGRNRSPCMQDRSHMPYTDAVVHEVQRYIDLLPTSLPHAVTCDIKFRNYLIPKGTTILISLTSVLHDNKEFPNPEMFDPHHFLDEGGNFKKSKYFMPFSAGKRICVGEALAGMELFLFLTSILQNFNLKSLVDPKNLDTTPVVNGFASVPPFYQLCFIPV
How it was run: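 Luminescence, after 20 min with luciferin detection reagent, reflected CYP2C9 turnover during a 1 h NADPH-driven reaction at 37C. Enzyme-substrate mix contained 0.4% bovine serum albumin and was preincubated with compound 10 min at room temperature.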

[5] = Primary qHTS for inhibitors of nuclear receptor binding SET domain protein 2 (NSD2) in an isogenic RCH-ACV NSD2 p.E1099K mutant (9B) (AID 1645876); also: nearly all actives have a fitted effect of over 70% in size
[6] = Primary qHTS for inhibitors of nuclear receptor binding SET domain protein 2 (NSD2) in an RCH-ACV wild type WT cells (2C) (AID 1645877); conditions: activity change, negative = cell killing: at 44.9 µM (top of the series) unless noted; also: nearly all actives have a fitted effect of over 70% in size
[7] = Primary redox qHTS assay for identification of artifact compounds. (AID 1845223); conditions: Amplex Red/HRP redox cycling with DTT, fluorescence; redox activity (% of DA3003): at 53.8 µM (top of the series)
How it was run: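 Amplex Red (25 uM) and HRP (250 mU/mL) in HBSS, with compounds for 15 min, then 250 uM DTT for 30 min, room temperature, dark. Fluorescence 525/598 nm read; normalized to DMSO and 10 uM DA3003; Hill fit.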

HEK293 = experiment: Cytotoxic Profiling of Annotated Libraries Using Quantitative High-Throughput Screening (AID 1296008); conditions: Five cell lines viability, CellTiter-Glo ATP luminescence, 48-72 h; max response: active compounds read low; also: nearly all actives have a fitted effect of over 60% in size; as to max response: % is scaled to controls: 0 for no effect and ±100 for the full control effect
How it was run: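 Compounds were pin-transferred onto cells and incubated 48 or 72 hr at 37 degree Celsius, 95% humidity. CellTiter-Glo was added, plates sat 10 min at room temperature, then ATP-coupled luminescence was imaged as the viability read-out.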

JEG-3 = experiment: Primary qHTS to identify gynecologic anti-cancer compounds using libraries of approved drugs and bioactive compounds (AID 1345084); conditions: Gynecologic cancer cell panel viability, ATPlite luminescence, 48 h; series mostly up to 57.5 µM; also: nearly all actives have a fitted effect of over 55% in size; as to activity change, negative = cytotoxicity: % is scaled to controls: 0 for no effect and ±100 for the full control effect
How it was run: (§1)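 In this quantitative HTS, cell killing is estimated from loss of ATP-dependent luciferase light. Cells see five compound concentrations over a 48 h exposure.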

SKOV3 = experiment: as above; conditions: Gynecologic cancer cell panel viability, ATPlite luminescence, 48 h; series mostly up to 57.5 µM
How it was run: as §1

Hek293T = experiment: as above; conditions: Gynecologic cancer cell panel viability, ATPlite luminescence, 48 h, control line for the selectivity index; activity change, negative = cytotoxicity: at 57.5 µM (top of the series) unless noted
How it was run: as §1

[8] = Primary fluorescence-based thiol-reactive (MSTI) qHTS assay for identification of artifact compounds. (AID 1845221);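 also: thiol-reactive compounds lower the probe fluorescence signal; nearly all actives have a fitted effect of over 65% in size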
How it was run: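 One-hour, room-temperature, dark incubation of compound with 4 uM MSTI in PBS (pH 7.4, 2% DMSO) precedes a fluorescence read at 525 nm excitation, 598 nm emission; Hill-equation fitting yields concentration-response values.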

OV90 = experiment: Primary qHTS to identify gynecologic anti-cancer compounds using libraries of approved drugs and bioactive compounds (AID 1345084); conditions: Gynecologic cancer cell panel viability, ATPlite luminescence, 48 h; series mostly up to 57.5 µM; also: nearly all actives have a fitted effect of over 55% in size; as to activity change, negative = cytotoxicity: % is scaled to controls: 0 for no effect and ±100 for the full control effect
How it was run: as §1

PA-1 = experiment: as above; conditions: Gynecologic cancer cell panel viability, ATPlite luminescence, 48 h; series mostly up to 57.5 µM
How it was run: as §1

[9] = test system: Zika virus NS2B-NS3 protease (linked construct); experiment: Primary screen NINDS Rhodamine qHTS for Zika virus inhibitors (AID 1347160); conditions: activity change, negative = inhibition: at 57.1 µM (top of the series) unless noted; also: nearly all actives have a fitted effect of over 55% in size
How it was run: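 Purified linked NS2B-NS3 protease (NS2B hydrophilic domain joined to NS3 protease by flexible linker), 25 nM in 10 mM Tris-HCl pH 8.0, 0.01% Tween 20. Compounds titrated, 15 min preincubation at room temperature; 1.5 microM Rhodamine110 substrate, FITC fluorescence change over 15 min.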

Tov-21-G = experiment: Primary qHTS to identify gynecologic anti-cancer compounds using libraries of approved drugs and bioactive compounds (AID 1345084); conditions: Gynecologic cancer cell panel viability, ATPlite luminescence, 48 h; activity change, negative = cytotoxicity: at 57.5 µM (top of the series) unless noted; also: nearly all actives have a fitted effect of over 55% in size; as to activity change, negative = cytotoxicity: % is scaled to controls: 0 for no effect and ±100 for the full control effect
How it was run: as §1
Potency is read from the fitted curve at half-maximal effect; tags tell the direction and shape of the fitted curve.

Compound: C[C@@H](NC(=O)[C@H](O)c1cc(F)cc(F)c1)C(=O)N[C@@H]1C(=O)N(C)c2ccccc2-c2ccccc21
- Potency [1]: inconclusive: 18.4 µM [inhibitor, single point]
- Potency [2]: inconclusive: 56.2 µM [inhibitor, partial curve, poor fit]
- Potency [3]: inconclusive: 23.9 µM [inhibitor, partial curve, poor fit]
- Potency [4]: inconclusive: 13.5 µM [inhibitor, partial curve, poor fit]
- Potency [5]: inconclusive: 8.17 µM [inhibitor, partial curve]
- Potency [6]: inconclusive: 5.15 µM [inhibitor, partial curve]
- Potency [7]: inconclusive: 4.23 µM [activator, full curve]
- Potency (HEK293): inconclusive: 20.6 µM [inhibitor, single point]
- Potency (JEG-3): inactive
- Potency (SKOV3): inconclusive: 11.2 µM [cytotoxic, partial curve, poor fit]

Compound: C=C1CC[C@@]2(OC1)O[C@H]1CC3C4CC=C5C[C@@H](O[C@@H]6O[C@@H](C)[C@H](O)[C@@H](O)[C@H]6O)C[C@@H](O[C@@H]6O[C@H](C)[C@H](O)[C@H](O)[C@H]6O[C@@H]6O[C@@H](C)[C@H](O)[C@@H](O)[C@H]6O)[C@]5(C)C4CC[C@]3(C)[C@H]1[C@@H]2C (stereo partly specified)
- Potency [6]: inconclusive: 6.9 µM [inhibitor, single point]
- max response (HEK293): inactive: 1.18%
- activity change, negative = cytotoxicity (Hek293T): inactive: 5.62% [at 11.6 µM]

Compound: CN1CCN(c2ccc(-c3cccc(CN4CCOCC4)c3)cc2NC(=O)c2c[nH]c(=O)cc2C(F)(F)F)CC1
- Potency [5]: inconclusive: 18.3 µM [inhibitor, partial curve, poor fit]
- Potency [7]: inconclusive: 4.65 µM [activator, partial curve, poor fit]
- Potency (HEK293): inconclusive: 11.4 µM [inhibitor, single point]
- Potency (JEG-3): inactive

Compound: Cc1ccc(N2CCN(CCC3NC(=O)c4ccccc43)CC2)cc1C (stereo unspecified)
- Potency [4]: inconclusive: 9.52 µM [inhibitor, partial curve]
- Potency [5]: inactive
- Potency [8]: inconclusive: 2.99 µM [inhibitor, full curve]
- Potency (HEK293): inconclusive: 18.4 µM [inhibitor, single point]
- Potency (OV90): inactive
- Potency (PA-1): inactive

Compound: COC1=CC(=O)C=C(C)C12Oc1c(Cl)c(OC)cc(OC)c1C2=O (stereo unspecified)
- Potency [5]: inconclusive: 20.1 µM [inhibitor, single point]
- Potency [6]: inconclusive: 20.1 µM [inhibitor, single point]
- Potency (HEK293): inconclusive: 14.3 µM [inhibitor, single point]
- Potency (Hek293T): inactive

Compound: Cn1cc(C2=C(c3coc4ccccc34)C(=O)NC2=O)c2cc(Br)ccc21
- Potency [1]: inconclusive: 29.1 µM [inhibitor, single point]
- Potency [2]: active: 25.1 µM
- Potency [9]: inconclusive: 28.2 µM [inhibitor, partial curve]
- Potency [6]: inconclusive: 23 µM [inhibitor, single point]
- Potency [8]: inconclusive: 2.99 µM [inhibitor, partial curve]
- Potency (HEK293): inconclusive: 29.1 µM [inhibitor, single point]
- Potency (JEG-3): inconclusive: 14.1 µM [rising, partial curve, poor fit]
- Potency (SKOV3): inactive
- Potency (Tov-21-G): inactive
